# From PubChem BioAssay AID624417 (National Center for Advancing Translational Sciences (NCATS), 2012)
# The campaign covered roughly 410,000 compounds. About 6,400 (1.6%) were called active. Inconclusive means that the source gave no clear call. Such entries were picked first, then a sample of the others. The call rests on the fitted dose curve; in most records, active means well fitted inhibition curve with a large enough effect; inconclusive means small, poorly fitted or top-dose-only effect; inactive means no such curve, though single readings can be large or run the other way. Potencies of inconclusive entries are left out as doubtful fits.
# Molecular target: Glucagon-like peptide 1 receptor (Homo sapiens) (UniProt P43220)
# Assay: qHTS of GLP-1 Receptor Inverse Agonists (Inhibition Mode); further: nearly all actives have a fitted effect of over 55% in size
# Details: HEK293 GLP-1R CRE-luciferase, luminescence, 24 h, GLP-1R form is constitutively active; series mostly up to 38.3 µM
# How it was run: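 Assay principle: reduced luminescence from a cAMP-responsive reporter in HEK293 cells co-expressing a constitutively active GLP-1R. Conditions: 24 hr compound incubation, 37 deg C, 5% CO2.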
# Potency means the concentration at half of the fitted maximal effect; tags describe the fitted curve by direction and shape.
# Chain of UniProt P43220 (P43220 whole entry, looked up): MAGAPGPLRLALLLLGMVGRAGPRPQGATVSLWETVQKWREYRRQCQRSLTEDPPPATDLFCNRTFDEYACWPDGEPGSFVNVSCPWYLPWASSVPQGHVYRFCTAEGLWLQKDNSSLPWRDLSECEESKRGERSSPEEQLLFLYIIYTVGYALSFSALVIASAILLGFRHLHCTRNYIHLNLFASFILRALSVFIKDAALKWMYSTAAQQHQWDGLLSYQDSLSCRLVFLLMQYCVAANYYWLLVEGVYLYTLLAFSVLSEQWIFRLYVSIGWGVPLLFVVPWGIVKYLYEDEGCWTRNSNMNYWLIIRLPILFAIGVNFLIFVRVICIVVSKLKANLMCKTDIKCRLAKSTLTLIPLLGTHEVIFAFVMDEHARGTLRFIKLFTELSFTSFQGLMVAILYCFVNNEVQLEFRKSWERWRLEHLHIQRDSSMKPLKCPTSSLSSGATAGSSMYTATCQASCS
row,SMILES,Potency
1,Cc1ccc(-n2nnnc2SC(C)C(=O)Nc2ccc(Cl)cn2)cc1 (centres undefined),"inconclusive [inhibitor, single point]"
2,CCc1ccc(OCC(=O)N/N=C(\C)c2ccc(O)cc2O)cc1,"inconclusive [inhibitor, single point]"
3,OC(CC#CCN1CCCCC1)(c1ccccc1)c1ccccc1,"inconclusive [inhibitor, partial curve, poor fit]"
4,Cc1cc(C)cc(NC(=S)N(CCCN2CCN(C)CC2)Cc2cccs2)c1,inactive
5,Cc1ccc(/C=C2/SC(=S)N(CCC(=O)NCCCN3CCOCC3)C2=O)cc1,"inconclusive [inhibitor, full curve, poor fit]"
6,COc1cc(S(=O)(=O)N2CCN(Cc3ccc4c(c3)OCO4)CC2)c(C)cc1C,"inconclusive [inhibitor, single point]"
7,COc1ccc(OC)c(NC(=O)c2cnn(-c3ccc(C)cc3)c2C2CCNCC2)c1,"inconclusive [inhibitor, partial curve]"
8,Cc1ccc(-c2csc(NCCc3nc4cc(Cl)c(Cl)cc4n3CCOCCO)n2)cc1,"inconclusive [inhibitor, single point]"
9,COc1cc(C=C2C(=O)C=CC2=O)ccc1O,"inconclusive [inhibitor, single point]"
10,CC1CCN(CC(=O)Nc2cccc([N+](=O)[O-])c2)CC1,inactive
11,CCCn1c(SCC(=O)N2N=C3/C(=C/c4ccc(OC)cc4)CCCC3C2c2ccc(OC)cc2)n[nH]c1=O (centres undefined),"inconclusive [inhibitor, partial curve, poor fit]"
12,CCc1ccccc1N(C)C(=O)c1cc2c(=O)oc3ccccc3c2s1,"inconclusive [inhibitor, single point]"
13,CCC(=O)N1CCc2cc(S(=O)(=O)NCCCN3CCN(Cc4ccccc4)CC3)ccc21,"inconclusive [inhibitor, single point]"
14,COc1ccccc1C(=O)Nc1ccc2c(c1)CCCN2C(=O)c1cccs1,"inconclusive [inhibitor, single point]"
15,CC(=O)c1cccc(NC(=O)c2noc3c2CCCC3)c1,inactive
16,CCCn1c2ccccc2c2cnn(CC(=O)NCCCN3C(C)CCCC3C)c(=O)c21 (centres undefined),"inconclusive [inhibitor, partial curve, poor fit]"
17,CC(C)(C)CNC(=O)C1(C)CCN1C(=O)c1ccccc1CCc1ccccc1 (centres undefined),"inconclusive [inhibitor, partial curve, poor fit]"
18,CC(C)Cn1c(N)c(C(=O)COC(=O)CCc2nc3ccccc3s2)c(=O)n(C)c1=O,"inconclusive [inhibitor, partial curve]"
19,CCOc1ccc(NC2CCCCC2NS(=O)(=O)c2ccccc2)cc1 (centres undefined),"inconclusive [inhibitor, partial curve, poor fit]"
20,COc1cccc(NC(=O)C(Cc2ccccc2)NS(=O)(=O)c2ccc3c(c2)oc(=O)n3C)c1 (centres undefined),inactive
21,CCOc1ccc(CCNC(=O)CCc2cn(Cc3ccc(F)cc3)c3ccccc23)cc1,"inconclusive [inhibitor, partial curve, poor fit]"
22,CC(C)(CO)NCc1cccc(OCc2ccc(Cl)cc2)c1,"inconclusive [inhibitor, partial curve, poor fit]"

row,SMILES,Potency
1,COc1ccc(-n2nc(C(=O)Nc3cccc(C)n3)c3c4ccccc4n(C)c3c2=O)cc1Cl,inactive
2,CCCCOc1ccc(N(CC(=O)NCC2CCCO2)C(=O)CCC(=O)Nc2cc(C)ccn2)cc1 (centres undefined),"inconclusive [inhibitor, single point]"
3,CSc1nc2c(c(=O)n1Cc1ccccc1)SC(C)C2 (centres undefined),"inconclusive [inhibitor, single point]"
4,O=C(NC(c1ccccc1)C(Cl)(Cl)Cl)c1ccccc1 (centres undefined),"inconclusive [inhibitor, single point]"
5,O=C(NCc1cccs1)C(Cc1ccccc1)n1cccc1 (centres undefined),"inconclusive [inhibitor, single point]"
6,Cc1cc(C)cc(NC(=O)c2ccc(S(=O)(=O)N(C)CC3CCCO3)cc2)c1 (centres undefined),"inconclusive [inhibitor, single point]"
7,Cc1cccc(CN2C(=O)N/C(=C/c3ccc(C)s3)C2=O)c1,"inconclusive [inhibitor, single point]"
8,Cc1ccc(Cn2nnc3c(=O)n(CC(=O)NCc4ccccc4)cnc32)cc1,"inconclusive [inhibitor, partial curve, poor fit]"
9,O=C(Nc1cccnc1Oc1ccc(Cl)cc1)c1cccc2ccccc12,"inconclusive [inhibitor, single point]"
10,CCCN(C(=O)c1coc(=O)c2ccccc12)c1ccccc1C,"inconclusive [inhibitor, partial curve, poor fit]"
11,CCc1ccc(OCC2c3cc(OC)c(OC)cc3CCN2C(=O)COc2ccccc2)cc1 (centres undefined),"inconclusive [inhibitor, single point]"
12,O=C(NCc1csc(-c2cccs2)n1)Nc1ccc(F)cc1F,"inconclusive [inhibitor, single point]"
13,COc1cccc(OCc2cc(C(=O)N(C)C3CCOCC3)no2)c1,inactive
14,COc1ccc(CNC(=O)COC(=O)c2[nH]c(C)c(C(C)=O)c2C)cc1OC,inactive
15,Clc1ccc(-c2nc(N3CCCCC3)nc3ccccc23)cc1,"inconclusive [inhibitor, partial curve, poor fit]"
16,Cc1cccc(C(=O)c2c[nH]cc2-c2ccccc2)c1,"inconclusive [inhibitor, single point]"
17,COC(=O)c1cc(S(=O)(=O)NCCc2ccc(Cl)cc2)c[nH]1,"inconclusive [inhibitor, partial curve]"
18,C=CC[C@@H](CC(=O)N(CCO)Cc1ccccc1)C(=O)NCCOC(=O)[C@H](CC=C)CC(=O)OC(C)(C)C,inactive
19,COc1cc(/C=C2\C(=N)N3N=C(S(C)(=O)=O)SC3=NC2=O)ccc1OS(=O)(=O)c1ccc(C)cc1,"inconclusive [inhibitor, single point]"
20,COc1ccc(NC(=S)NC(=O)c2ccc3c(c2)OCCO3)cc1,inactive
21,Cc1ccc(Cl)cc1NC(=O)C(Cc1ccccc1)N1C(=O)C2C3CCC(C3)C2C1=O (centres undefined),"inconclusive [inhibitor, partial curve, poor fit]"
22,O=C(COc1cccc2ccccc12)Nc1nc2ccccc2[nH]1,"inconclusive [inhibitor, single point]"

row,SMILES,Potency
1,COc1ccc(NS(=O)(=O)c2ccc3oc(SC)nc3c2)cc1,"inconclusive [inhibitor, single point]"
2,CC(=O)c1cccc(NC(=S)NC(=O)c2cccc(C)c2)c1,inactive
3,CC1C(c2ccccc2)N(C)C(c2ccccc2)CC1(O)c1ccccc1 (centres undefined),"inconclusive [inhibitor, partial curve, poor fit]"
4,Cc1cc(C)c2cc(CN(CCO)Cc3nnnn3Cc3ccc(F)cc3)c(=O)[nH]c2c1,inactive
5,CCCn1c(SCC(=O)N2CCCc3ccccc32)nnc1-c1ccco1,"inconclusive [inhibitor, single point]"
6,COc1ccc(C2=NN(C(=O)CSc3ncccn3)C(c3ccc(C)cc3)C2)cc1 (centres undefined),"inconclusive [inhibitor, single point]"
7,O=C(N1CCCC1)C12CCC3CC(CC(C3)C1)C2,"inconclusive [inhibitor, single point]"
8,Cc1ccccc1-c1noc(CCC(=O)NCc2ccco2)n1,"inconclusive [inhibitor, partial curve, poor fit]"
9,Cc1cc2ccccn2c1C(=O)c1nc(NCc2ccco2)ncc1Cl,"inconclusive [inhibitor, partial curve, poor fit]"
10,COc1cccc(CNC(=O)CC(NC(=O)c2ccccc2)c2ccccc2)c1 (centres undefined),inactive
11,COc1ccccc1NC(=O)CSc1nnc(-c2ccoc2C)o1,inactive
12,COc1ccc(OC)c(CCNc2nc3ccccc3c3nc(-c4cccnc4)nn23)c1,inactive
13,CCOc1ccc(N(CC(=O)NCCSCc2ccccc2)S(=O)(=O)c2ccccc2)cc1,"inconclusive [inhibitor, partial curve, poor fit]"
14,Cc1onc(-c2ccccc2)c1C(=O)Nc1nnc(N(C)Cc2ccccc2)s1,"inconclusive [inhibitor, single point]"
15,Cc1ccc(S(=O)(=O)N2CCCCC2CCNC(=O)C(=O)NCc2cccnc2)cc1 (centres undefined),"inconclusive [inhibitor, partial curve]"
16,CC(=O)Nc1cccc(NC(=O)CCCC2CCCCC2)c1,"inconclusive [inhibitor, single point]"
17,Cc1cccc(N2CCN(S(=O)(=O)c3cc(C(=O)Nc4ccccc4Cl)ccc3F)CC2)c1C,"inconclusive [inhibitor, single point]"
18,Cc1ccc(NC(=O)[C@@H](c2ccccc2)N2Cc3ccccc3C2=O)cc1,"inconclusive [inhibitor, single point]"
19,CC(C)(C)OC(=O)N1CCC(c2c(C(=O)NCCN3CCC(Cc4ccccc4)CC3)cnn2-c2ccc(F)cc2)CC1,"inconclusive [inhibitor, single point]"
20,Fc1ccc(CNc2nc(-c3ccccc3)nc3ccccc23)cc1,"inconclusive [inhibitor, single point]"
